# Experimental data from article PMC4336329 (PLoS ONE, 2015).
# Hit rate of the full screen: of about 310,000 compounds, about 2,200 (0.71%) showed an effect of 50% or more. Effects have a minus sign here. The list shows a part of the results. Where a SMILES comes first, the peptide text is derived from it. The star is where a group is joined. Cbz = O=C(OCc1ccccc1)*
# Molecular target: human ether-à-go-go-related gene (hERG) potassium channel (human, UniProt Q12809)
# Assay: primary screen, population patch clamp on CHO cells stably expressing hERG
# human ether-à-go-go-related gene (hERG) potassium channel, sequence (Q12809 whole entry, looked up): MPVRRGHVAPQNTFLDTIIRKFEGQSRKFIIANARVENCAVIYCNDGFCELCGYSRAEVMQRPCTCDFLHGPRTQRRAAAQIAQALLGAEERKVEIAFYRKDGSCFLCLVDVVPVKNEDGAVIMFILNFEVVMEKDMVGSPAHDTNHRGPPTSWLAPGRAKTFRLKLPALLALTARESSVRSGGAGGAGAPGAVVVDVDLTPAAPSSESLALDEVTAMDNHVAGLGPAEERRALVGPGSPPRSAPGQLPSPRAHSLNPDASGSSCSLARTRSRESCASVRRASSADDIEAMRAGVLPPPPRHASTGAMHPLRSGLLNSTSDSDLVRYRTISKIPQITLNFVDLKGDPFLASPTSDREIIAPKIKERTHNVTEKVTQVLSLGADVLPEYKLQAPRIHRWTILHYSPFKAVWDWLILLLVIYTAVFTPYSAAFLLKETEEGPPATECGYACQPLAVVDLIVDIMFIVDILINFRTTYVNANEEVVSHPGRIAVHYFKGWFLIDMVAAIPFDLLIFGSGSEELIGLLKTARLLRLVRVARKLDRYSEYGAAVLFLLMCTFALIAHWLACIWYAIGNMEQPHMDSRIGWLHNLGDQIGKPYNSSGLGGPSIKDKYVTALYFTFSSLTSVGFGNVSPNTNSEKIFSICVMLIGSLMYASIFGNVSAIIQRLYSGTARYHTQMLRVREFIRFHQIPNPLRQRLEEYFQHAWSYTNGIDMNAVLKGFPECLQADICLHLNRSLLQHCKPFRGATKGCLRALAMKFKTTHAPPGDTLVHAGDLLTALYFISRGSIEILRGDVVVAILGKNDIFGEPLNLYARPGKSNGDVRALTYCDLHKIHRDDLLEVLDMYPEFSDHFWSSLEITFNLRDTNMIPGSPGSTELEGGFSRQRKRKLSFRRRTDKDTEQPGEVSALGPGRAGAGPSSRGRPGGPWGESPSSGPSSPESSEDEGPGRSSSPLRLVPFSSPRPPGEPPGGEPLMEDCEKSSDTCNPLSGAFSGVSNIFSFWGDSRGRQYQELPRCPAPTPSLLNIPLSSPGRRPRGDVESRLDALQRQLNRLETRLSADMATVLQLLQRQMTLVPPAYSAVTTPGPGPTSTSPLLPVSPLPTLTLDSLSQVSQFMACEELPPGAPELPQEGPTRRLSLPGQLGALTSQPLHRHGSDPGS
row,SMILES,"hERG current change (%, negative = inhibition) at 1uM"
1,Cc1cc(C)c(C#N)c(SCSCc2ccccc2)n1,4.89%
2,COc1ccccc1C(=O)N1CCN(C(=O)COc2cccc(C)c2)CC1,-2.56%
3,Cc1ccc(C)c(NC(=O)CN(C)C(=O)c2cccc(N3C(=O)CCC3=O)c2)c1,4.88%
4,CCOC(=O)C1CCCN(C(=S)NC2CCCCC2)C1 (centres unmarked),-1.2%
5,COc1cccc(/C=N/Nc2nnc3c(n2)[nH]c2ccccc23)c1OC,13.3%
6,CCC(NC(=O)c1ccccc1NC(=O)c1ccco1)C(=O)NC1CCCCC1 (centres unmarked),-2.35%
7,O=C(/C=C/c1ccccc1)c1ccc2c3c(cccc13)CC2,7.8%
8,C/C(=N\Nc1ccc(S(=O)(=O)Nc2ccccc2)cc1[N+](=O)[O-])c1ccncc1,11.4%
9,Cc1ccccc1-c1nnn(CC(=O)Nc2ccc3c(c2)OCCO3)n1,7.3%
10,CC(C)c1ccc(C(=O)N2CCN(CCO)CC2)cc1.Cl,12.7%
11,CN1CCN(S(=O)(=O)c2ccc(Cl)nc2)CC1,8.63%
12,COc1cc(OC)c(C(=O)N/N=C/c2ccoc2)cc1OC,11%
13,O=c1[nH]cc(O)c(=O)[nH]1,11.8%
14,Cc1cccc(OCC(=O)N/N=C2/SCC(=O)N2Cc2ccco2)c1,5.41%
15,CC(CNC(=O)C1CCCN(S(=O)(=O)N2CCOCC2)C1)c1ccccc1 (centres unmarked),13.2%
16,COc1ccc(/C=N\NC(=O)c2cc(O)c(O)c(O)c2)cc1COc1ccc(C(=O)OCC(C)C)cc1,13.3%
17,CC(=O)N1CCN=C1SCc1ccccc1Cl,14.8%
18,CN(C1CCCCC1)S(=O)(=O)c1ccc2c(c1)c(=O)c(C(=O)N1CCc3ccccc3C1)cn2C,1.11%
19,COC(=O)C(CO)NC(=O)C1CCCN1C(=O)CNC(=O)OCc1ccccc1 (stereo not drawn) (Cbz-Gly-Pro-Ser-OMe; configuration not given here),16.5%

row,SMILES,"hERG current change (%, negative = inhibition) at 1uM"
1,CCc1c(C)nc2ncnn2c1Nc1ccc(C)cc1,7.86%
2,CC(=O)c1ccc(OCc2cc(C(=O)N3CCOCC3)no2)cc1,16.5%
3,Cc1cccc(-c2ncc(CN3CCCC(CO)(Cc4ccccc4C)C3)cn2)c1 (centres unmarked),11.1%
4,CC1(C)O[C@@H]2C[C@H]3[C@@H]4CCC5=CC(=O)C=C[C@]5(C)[C@@]4(F)[C@@H](O)C[C@]3(C)[C@]2(C(=O)CO)O1,16.7%
5,Cc1cc2ccccn2c1C(=O)c1nc(N2CCOCC2)ncc1Cl,-4.06%
6,COc1ccc(C(=O)NC(=S)N2CCN(C)CC2)cc1Br,7.4%
7,O=C(NC(=S)Nc1cccc(Cl)c1N1CCCC1)c1ccc(-c2cccc([N+](=O)[O-])c2)o1,13.3%
8,Cc1ccc(C(=O)O/N=C(/c2nonc2N)N(C)C)cc1,1.98%
9,Nn1c(SCc2cccc(Br)c2)nnc1-c1cccnc1,11.9%
10,C/C(=N\n1cnnc1)c1ccc(C#N)cc1,13.6%
11,Cc1onc(-c2ccccc2)c1C(O)c1ccc(F)cc1 (centres unmarked),11.8%
12,Cc1nn(CC(=O)NCC(C)c2ccccc2)c(=O)c2cc3occc3n12 (centres unmarked),4.72%
13,CCNC(=S)N1CCN(c2ncccn2)CC1,10.6%
14,CCc1ccccc1-n1nnnc1SCC(=O)Nc1ccc(N2CCN(C)CC2)cc1,-3.2%
15,Cc1ccc(N=C2NC(=O)CS2)cc1C,10.6%
16,COc1ccc2[nH]c3c(=O)n(CCCC(=O)NC4CCCCC4C)c(=S)[nH]c3c2c1 (centres unmarked),2.65%
17,COc1ccc(-c2nnc3sc(-c4cccs4)nn23)cc1OC,6.62%
18,Cc1cc2nc(CSc3ccc(Cl)cc3)cc(=O)n2[nH]1,9.14%
19,Cc1ccc(S(=O)(=O)N(CC(=O)NCCC2=CCCCC2)Cc2ccccc2F)cc1,6.21%

row,SMILES,"hERG current change (%, negative = inhibition) at 1uM"
1,Fc1cccc(Oc2nc3ccccc3n3cccc23)c1,13.9%
2,Cc1ccc(SCc2noc(C(=O)NCC3CCCO3)c2C(=O)O)cc1C (centres unmarked),10.2%
3,O=C(NCCCN1CCCC1=O)c1cccnc1,14.3%
4,COc1ccc(O)c(/C=N/NC(=O)CCC(=O)Nc2ccc(F)cc2)c1,16.3%
5,Cc1[nH]c2ccccc2c1/C=N/NC(=O)c1ccc(N)cc1,14.8%
6,CCOc1cc(S(=O)(=O)NC2CC(C)(C)NC(C)(C)C2)ccc1Cl,11.2%
7,CCCCn1c(N)c(N(Cc2ccccc2OC)C(=O)CN2C(=O)NC(C)(c3ccccc3)C2=O)c(=O)[nH]c1=O (centres unmarked),22.4%
8,O=C(N/N=C\c1ccccn1)C1c2ccccc2Oc2ccccc21,8.15%
9,CN(C)c1ccc(C(=S)N2CCN(C(=S)Nc3ccc(Cl)cc3)CC2)cc1,15.2%
10,COc1ccccc1N1CCN(C(=O)C(NS(=O)(=O)c2cccs2)c2ccccc2)CC1 (centres unmarked),-10.8%
11,O=C(COC(=O)COc1ccc(Cl)cc1Cl)NC1CCCCCC1,10.1%
12,COc1c2c(cc3oc(C)cc(=O)c13)OC(C(C)(C)OC1OC(CO)C(O)C(O)C1O)C2 (centres unmarked),15.7%
13,COc1ccc(N(CC(=O)Nc2ccccc2OC)S(=O)(=O)c2ccc(NC(C)=O)cc2)cc1,10%
14,COc1cc(C)c(-c2[nH]ncc2-c2csc(C)n2)c(O)c1,5.51%
15,COc1ccc(C)cc1NC(=O)NCc1ccco1,13.8%
16,C=C(C)Cn1c(-c2cccc([N+](=O)[O-])c2)n[nH]c1=S,6.8%
17,NC(=O)NC(=O)C(OC(=O)CCNS(=O)(=O)c1ccccc1)c1ccccc1 (centres unmarked),-3.71%
18,CCN(CC)C(=S)Sc1c(-c2ccccc2)c2cc(Cl)ccc2[nH]c1=O,7.37%
